This note sets out measurements from paper PMC12040169 (PLOS Biology, 2025).

The list shows a part of the results.

The test concerns T1, C. trachomatis L2/434/Bu expressing GFP (CTL2-GFP).
T1 construct: L2/434/Bu GFP intracellular growth in HeLa cells
More on the design: species or system HeLa; C. trachomatis total inclusion area by high-content imaging, normalised to DMSO. To be noted: total inclusion area; 28.5 h, 10 µM; inhibitor. An outline of the steps:
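High-content images of fixed, Hoechst-stained infected cultures supply inclusion area and count (growth) plus nuclei number (viability), complementing bulk GFP/resorufin fluorescence. MIC determination is unchanged from the primary assay.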
For the molecule `FC(F)(F)Oc1cccc(-c2cncc(NCc3cccs3)n2)c1` [CBK065909], the “% of control remaining” value was found to be 102.479.

As for `COc1ccc(Cl)cc1S(=O)(=O)N1CCC(C(=O)NCCO)CC1` [CBK270002], the “% of control remaining” value is given as 83.1326.

In the case of `COc1cc(NC(=O)N2CCN(c3cc(C(F)(F)F)ccn3)CC2)cc(OC)c1OC` [CBK162349], the “% of control remaining” value turned out to be 92.5151.

Regarding `CCCCN(C)c1c(C)nc2c(Oc3ncccn3)cccn12` [CBK147190], the “% of control remaining” value was found to be 105.757.

On to `COc1cccc(C2C(C(=O)c3ccc(Cl)cc3)=C(O)C(=O)N2CCCN2CCOCC2)c1` (stereo not shown) [CBK264865], for which the “% of control remaining” value was found to be 92.6886.

For `Fc1ccc(CSc2nnc(-c3ccccn3)[nH]2)cc1` [CBK270074], the “% of control remaining” value came to 78.012.

Take `NC(=O)c1ccccc1NC(=O)CN1CCN(Cc2cccc(F)c2)CC1` [CBK270292]: the “% of control remaining” value amounted to 91.6498.

Regarding `O[C@H](CNCc1ccccc1)COc1cccc2c1C1CCC2CC1` [CBK000370], the “% of control remaining” value is given as 50.7559.

For `CCNc1cc2ccccc2c(-c2ccc3c(c2)OCCCO3)n1` [CBK089641], the “% of control remaining” value was found to be 101.356.

`OCc1cccc2c3c(n(Cc4ccccc4)c12)CCCC3` [CBK004693]: the “% of control remaining” value amounted to 86.7692.

Consider `Cc1nc2ccccc2n1CC(O)COc1ccccc1` (stereo not shown) [CBK288084], for which the “% of control remaining” value is 72.8786.

As for `OCCc1ccc(Nc2cc(-c3ccco3)ncn2)cc1` [CBK090771], the “% of control remaining” value is reported as 115.872.

On to `O=C(C1CCCC1)N1CCCC1c1nc2ccccc2[nH]1` (stereo not shown) [CBK282378], for which the “% of control remaining” value worked out at 113.385.

Turning to `COc1ccc2cc(Br)ccc2c1CC(=O)Nc1ccccc1[N+](=O)[O-]` [CBK268823], the “% of control remaining” value was determined as 114.399.

Turning to `OCc1nc(-c2cccnc2)co1` [CBK018811], the “% of control remaining” value is on record as 80.1932.

In the case of `Cc1cc(=O)oc2cc(SCc3ccc(Cl)s3)ccc12` [CBK002898], the “% of control remaining” value came out at 84.577.

In the case of `O=S(=O)(Nc1ccccc1)c1ccccc1I` [CBK057566], the “% of control remaining” value came out at 81.5311.

With `CCCS(=O)(=O)Nc1nccnc1-c1ccc(Oc2ccccc2)cc1` [CBK050908], the “% of control remaining” value was 85.8264.

Turning to `Cc1ccc(-c2c(N3C(=O)c4cccnc4C3=O)n[nH]c2C)cc1` [CBK288199], the “% of control remaining” value turned out to be 56.2789.

Turning to `COc1ccc(CNc2nccs2)c(O)c1` [CBK265690], the “% of control remaining” value amounted to 108.765.

In the case of `CCn1cc(C2CN(S(=O)(=O)c3ccc(F)c(C)c3)CCO2)cn1` (stereo not shown) [CBK305419], the “% of control remaining” value was determined as 96.4177.

In the case of `Cc1cc2[nH]c(=O)oc2cc1S(=O)(=O)NCCN1CCCCC1CO` (stereo not shown) [CBK307307], the “% of control remaining” value came out at 99.2161.

Regarding `COc1ccc(C)cc1N(C(=O)c1ccccn1)c1nc2ccccc2s1` [CBK297944], the “% of control remaining” value was found to be 99.5951.

Consider `Cc1csc2c(N3CCSCC3)ncnc12` [CBK009169], for which the “% of control remaining” value was found to be 22.9081.

With `COc1ccc(-c2cncc(N3CCCC3CO)n2)cc1` (stereo not shown) [CBK037223], the “% of control remaining” value is given as 96.6231.

For the molecule `CC(C)(C)OC(=O)N1CCC(COc2ccc(-c3ccc(S(C)(=O)=O)cc3)nc2)CC1` [CBK167839], the “% of control remaining” value is given as 63.0734.

Regarding `CCS(=O)(=O)Nc1cc([N+](=O)[O-])ccc1OC` [CBK111343], the “% of control remaining” value worked out at 57.9518.

As for `CNC(=O)c1ccc(-c2cc(C)cs2)nc1N(C)C` [CBK106150], the “% of control remaining” value amounted to 88.8275.

On to `Cc1cc(=O)oc2cc(Sc3sccc3[N+](=O)[O-])ccc12` [CBK002936], for which the “% of control remaining” value worked out at 21.6722.

For the molecule `COc1ccc(Br)cc1S(=O)(=O)Nc1cccc(C(=O)Nc2ccc(F)cc2)c1` [CBK038981], the “% of control remaining” value is reported as 77.5849.

As for `FC(F)(F)c1cnc(Oc2ccc(-n3ccnc3)cc2)c(Cl)c1` [CBK161625], the “% of control remaining” value was 87.7877.

On to `O=C(NC1CCN(Cc2c(F)cccc2Cl)CC1)C1CCN(C(=O)OCc2ccccc2)CC1` [CBK074720], for which the “% of control remaining” value was 75.3103.

Turning to `CCc1nn(Cc2ccccn2)c(=O)c2cc3sc(C)cc3n12` [CBK284113], the “% of control remaining” value is 125.732.

As for `CNC(=O)C1(Cc2ccc(-c3ccccc3)cc2)CCN(C(=O)C2CCCCC2)CC1` [CBK285762], the “% of control remaining” value was 122.386.

On to `Cc1nnc([C@H]2CCN(Cc3ccc4c(c3)OCO4)C2)o1` [CBK289392], for which the “% of control remaining” value came out at 93.013.

Consider `O=C1CCC(=O)N1CCOc1nccnc1OC1CCN(CCc2ccc3ccccc3c2)CC1` [CBK084358], for which the “% of control remaining” value worked out at 92.5766.

With `Cn1cc(C(c2ccc(OCC(=O)O)cc2)c2cn(C)c3ccccc23)c2ccccc21` [CBK266403], the “% of control remaining” value was determined as 0.281.

As for `C/C=C/c1ccc(OCCCSc2nc(C)cc(O)n2)c(OC)c1` [CBK267413], the “% of control remaining” value worked out at 108.401.

For `Cc1ccccc1OCC(=O)NCc1ccc(C(=O)O)cc1` [CBK287155], the “% of control remaining” value was determined as 97.7441.

With `CN1CCC[C@H]1COc1ncccc1OCCO` [CBK042185], the “% of control remaining” value is 89.4224.

Consider `c1ccc(-c2nnc3ccccc3c2N2CCNCC2)cc1` [CBK066888], for which the “% of control remaining” value came out at 0.3069.

In the case of `Cc1cc(C)c(OCC(=O)Nc2cc(-c3nc4ncccc4o3)ccc2C)c(Cl)c1` [CBK072887], the “% of control remaining” value is given as 87.5317.

For `O=C(Nc1cc(Oc2ccc(Cl)cc2)cc([N+](=O)[O-])c1)c1cnn2c(C(F)F)cc(C3CC3)nc12` [CBK268925], the “% of control remaining” value came out at 128.602.

As to `Cc1sc(C(N)=O)cc1[N+](=O)[O-]` [CBK066863], the “% of control remaining” value was determined as 98.7783.

As for `CC(N)C1CCCN(S(=O)(=O)c2ccc(OCc3ncnn3C)cc2)C1` (stereo not shown) [CBK304105], the “% of control remaining” value came to 109.074.

Turning to `CCOc1cccc(CN2CCCCC2c2[nH]ncc2C(N)=O)n1` (stereo not shown) [CBK304750], the “% of control remaining” value was 48.4123.

As for `COc1ccc2oc(=O)c(C(=O)Nc3cccc(O)c3)cc2c1` [CBK270070], the “% of control remaining” value was 104.588.

As for `COc1cc(OC)nc(C(NC(=O)C2CCN(Cc3ccc(N(C)C)cc3)CC2)c2ccc(F)cc2)n1` (stereo not shown) [CBK148204], the “% of control remaining” value amounted to 86.9744.

In the case of `Cc1c(C(=O)N(C)CCc2ccncc2)[nH]c2ccccc12` [CBK283271], the “% of control remaining” value came to 92.4216.

For the molecule `CCC(=O)c1c(CC)n[nH]c1-c1c(Cl)cccc1Cl` [CBK107819], the “% of control remaining” value came to 122.27.

Turning to `CN1CCC(N2CCN(C(=O)NCc3cccnc3)CC2)CC1` [CBK155889], the “% of control remaining” value is given as 91.2299.

Turning to `Nc1ccc2ccc(-c3ccc4c(c3)CCO4)nc2n1` [CBK067625], the “% of control remaining” value came out at 101.016.

For `COc1ccc(CN2CCN(C(=O)c3cccc(F)c3)CC2)c(OC)c1OC` [CBK074523], the “% of control remaining” value was found to be 84.0422.

Turning to `NS(=O)(=O)c1ccc(CCNC(=O)CN2C(=O)c3ccccc3C2=O)cc1` [CBK264377], the “% of control remaining” value turned out to be 97.4108.

Turning to `CSc1ccccc1NC(=O)c1cc(Cl)sc1Cl` [CBK057008], the “% of control remaining” value worked out at 84.2534.

For `CC(=O)Nc1cccc(C(=O)N2CCN(Cc3ccccn3)CC2)c1` [CBK304067], the “% of control remaining” value is listed as 30.6554.

Take `CN1CCN(c2cc3ncccc3cc2F)CC1` [CBK066904]: the “% of control remaining” value amounted to 89.9729.

For `CC(CN(C)C(=O)c1c[nH]nn1)Oc1ccc(Cl)c(Cl)c1` (stereo not shown) [CBK306160], the “% of control remaining” value turned out to be 32.8361.

On to `Cc1cc(NN(Cc2ccccc2)Cc2ccccc2)n2c(nc3ccccc32)c1C#N` [CBK262666], for which the “% of control remaining” value is 115.208.

Turning to `Nc1nc(COc2ccc(F)cc2)nc(N2CCOCC2)n1` [CBK288183], the “% of control remaining” value is given as 95.7653.

`CN(C)c1cccc(-c2cnc3[nH]c(=O)n(CCCO)c3n2)c1` [CBK065052]: the “% of control remaining” value is given as 108.182.

As to `c1ccc(C2(CN3CCN(Cc4cccnc4)CC3)CC2)cc1` [CBK282793], the “% of control remaining” value is recorded as 72.3663.

Take `CC(=O)Nc1cccc(-c2nccnc2C2CCCN(CCc3ccccc3)C2)c1` (stereo not shown) [CBK286128]: the “% of control remaining” value amounted to 73.7989.

Take `Cc1cc(COc2ccc(C(F)(F)F)cn2)no1` [CBK115792]: the “% of control remaining” value stood at 94.389.

As for `CCCN(CC1CC1)C(=O)CC1SC(NCC2CCCCC2)=NC1=O` (stereo not shown) [CBK067014], the “% of control remaining” value was found to be 79.2781.

`CCCn1c(SCC(=O)N2c3ccc(F)cc3CCC2C)nnc1-c1cccnc1` (stereo not shown) [CBK059187]: the “% of control remaining” value was found to be 49.1821.

Consider `COc1cccc(C(=O)N2CCOC(c3cc(C(=O)NCC(C)C)c4ccccc4n3)C2)c1` (stereo not shown) [CBK285894], for which the “% of control remaining” value was determined as 116.786.

Turning to `CCN1CCN(C(=O)Cc2cccnc2)CC1` [CBK200375], the “% of control remaining” value is 97.5873.

In the case of `CN(C)S(=O)(=O)c1ccc(C(=O)C2=C(O)C(=O)N(Cc3cccnc3)C2c2ccncc2)cc1` (stereo not shown) [CBK264714], the “% of control remaining” value was found to be 95.1269.

Consider `Cc1onc(-c2ccccc2)c1C(=O)NCCCn1ccnc1` [CBK262870], for which the “% of control remaining” value is reported as 57.6336.

On to `COc1ccc(CNC(=O)c2cc(S(=O)(=O)N(C)C)cs2)cc1` [CBK307579], for which the “% of control remaining” value stood at 51.7764.

`CC1Cc2ccccc2N1C(=O)c1nn(C)cc1I` (stereo not shown) [CBK058268]: the “% of control remaining” value is on record as 78.2731.

`O=C(O)CCn1c(=O)cc(C(F)F)c2cn(Cc3ccccc3)nc21` [CBK286881]: the “% of control remaining” value is 98.5618.

For the molecule `O=C(NCc1ccccc1OC1CCNC1)c1ccccn1` (stereo not shown) [CBK029464T], the “% of control remaining” value stood at 75.1307.

Take `COc1cc2c(cc1OC)CN(Cc1nc3ccccc3[nH]1)CC2` [CBK126390]: the “% of control remaining” value stood at 110.791.

`Cc1cc(-c2nnc(SCC(=O)N3CCCc4ccccc43)o2)no1` [CBK268828]: the “% of control remaining” value was 102.01.

As to `CC(C)[C@@H](Cn1nc(-c2cccs2)ccc1=O)NC(=O)C1CC1` [CBK284297], the “% of control remaining” value came to 84.4293.

For the molecule `Cc1nn(CCC(=O)NC(C)(C)CN2CCCC(C)C2)c(C)c1C` (stereo not shown) [CBK282676], the “% of control remaining” value turned out to be 106.579.

`CCOC(=O)/C(C#N)=C(\O)c1ccc(N2C(=O)c3ccc(C(=O)O)cc3C2=O)cc1` [CBK262683]: the “% of control remaining” value came to 102.811.

For the molecule `CCc1nc2ccc(C(=O)N3CCCCC3)cn2c1N(CC)Cc1ccc2c(c1)OCCO2` [CBK146903], the “% of control remaining” value came to 84.7596.

As to `C=CCNC(=O)N1CC[C@H]2CC(=O)N(Cc3ccc4c(c3)OCO4)CC[C@H]2C1` [CBK288794], the “% of control remaining” value is reported as 100.691.

For `CN(C)CCN(C)C1CCN(Cc2ccccc2)CC1` [CBK261930], the “% of control remaining” value was 56.7286.
